Experimental data reported in ChEMBL document CHEMBL5052851, “Mettl3 modulators” (2021).

Tests used:
[1] = molecular target: N6-adenosine-methyltransferase catalytic subunit (Homo sapiens, UniProt Q86U44); test: Inhibition of METTL3 (unknown origin) using UCUGGACUAAA-biotin and 3H-SAM as substrates preincubated for 5 mins followed by substrate addition incubated for 30 mins by TopCount scintillation counting method
[2] = Inhibition of METTL16 (unknown origin) using CGAUACAGAGAAGAUUAGCAUACGCAAAUUCGUGAAGCG-biotin and SAM as substrates preincubated for 5 mins followed by substrate addition incubated for 220 mins by TopCount scintillation counting method; set-up: species or system Homo sapiens

Chain of UniProt Q86U44 (Q86U44 whole entry): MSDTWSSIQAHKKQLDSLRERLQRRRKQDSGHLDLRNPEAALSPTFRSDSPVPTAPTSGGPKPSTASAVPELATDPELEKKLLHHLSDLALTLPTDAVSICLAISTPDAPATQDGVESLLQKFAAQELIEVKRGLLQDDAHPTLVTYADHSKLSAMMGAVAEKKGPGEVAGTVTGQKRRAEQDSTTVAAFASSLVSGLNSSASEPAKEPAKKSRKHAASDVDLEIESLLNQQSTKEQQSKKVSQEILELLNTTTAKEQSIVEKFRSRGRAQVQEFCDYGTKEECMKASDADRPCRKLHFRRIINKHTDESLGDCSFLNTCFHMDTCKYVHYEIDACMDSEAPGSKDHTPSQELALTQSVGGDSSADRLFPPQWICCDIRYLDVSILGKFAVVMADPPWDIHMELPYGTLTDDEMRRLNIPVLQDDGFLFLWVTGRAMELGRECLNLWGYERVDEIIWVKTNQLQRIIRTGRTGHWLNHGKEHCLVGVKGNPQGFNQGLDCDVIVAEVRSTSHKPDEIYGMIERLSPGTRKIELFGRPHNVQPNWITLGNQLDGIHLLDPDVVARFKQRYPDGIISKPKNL

IC50 [1] [nM]	IC50 [2] [nM]	SMILES
≥ 1000		Cn1ccc(-c2cn(-c3cncc(COc4ccc5ccc(N6CCCC6=O)nc5c4)c3)c3ncnc(N)c23)n1
	≥ 1000	CNc1ccc2ccc(OCc3cccc(-n4cc(C5CCCC5)c5c(N)ncnc54)c3)cc2n1
< 10		CC(C)(C)c1cc(N)c2ccc(OCc3cncc(-n4ccc5c(N)ncnc54)c3)cc2n1
	≥ 1000	CNc1ccc2ccc(OCc3cc(F)cc(-n4cc(Cl)c5c(N)ncnc54)c3)cc2n1
≥ 1000		Nc1ncnc2c1c(Cl)cn2-c1cccc(COc2ccc3ccc(N4CCCC4)nc3c2)c1
	≥ 1000	CCc1ncc(-n2cc(Cl)c3c(N)ncnc32)cc1COc1ccc2ccc(NC)nc2c1
	≥ 1000	CNc1ccc2ccc(OCc3cncc(-n4ccc5c(C)ncnc54)c3)cc2n1
≥ 1000		Nc1ncnc2c1c(Cl)cn2-c1nnc(COc2ccc3ccc(N4CCCC4)nc3c2)s1
≥ 1000		Cn1ccc(-c2cn(-c3cncc(COc4ccc(-c5ncco5)c(N)c4)c3)c3ncnc(N)c23)n1
	≥ 1000	CNc1ccc2ccc(OCc3cc(-n4cc(Cl)c5c(N)ncnc54)ccc3F)cc2n1
< 10		Nc1ncnc2c1c([C@@H]1CCCO1)cn2-c1cncc(COc2ccc3ccc(N4CCC4)nc3c2)n1
≥ 1000		Cn1ccc(-c2cn(-c3cncc(COc4ccc(C(=O)N5CCC(F)(F)CC5)c(N)c4)c3)c3ncnc(N)c23)n1
≥ 1000		CC1COc2ccc(OCc3cncc(-n4cc(-c5ccn(C)n5)c5c(N)ncnc54)c3)cc2N1 (centres undefined)
≥ 1000		Nc1cc(OCc2cncc(-n3ccc4c(N)ncnc43)c2)ccc1C(=O)N1CCNCC1
	≥ 1000	C[C@H]1CCN1c1ccc2ccc(OCc3cncc(-n4cc(C5CCCC5)c5c(N)ncnc54)c3)cc2n1
	≥ 1000	CNc1ccc2ccc(OCc3cc(C#N)cc(-n4ccc5c(N)ncnc54)c3)cc2n1
	≥ 1000	Nc1ncnc2c1c(Cl)cn2-c1cncc(COc2ccc3ccc(NCC4CC4)nc3c2)c1
	≥ 1000	CNc1ccc2ccc(OCc3cc(O)cc(-n4cc(Cl)c5c(N)ncnc54)c3)cc2n1
	≥ 1000	CNc1ccc2ccc(OCc3cccc(-n4cc(CC5CC5)c5c(N)ncnc54)c3)cc2n1
≥ 1000		CN(C)CCNC(=O)c1ccc(OCc2cncc(-n3cc(Br)c4c(N)ncnc43)c2)cc1N
≥ 1000		CNc1ccc2ccc(OCc3ncc(-n4cc(Cl)c5c(N)ncnc54)s3)cc2n1
	≥ 1000	CNc1ccc2ccc(OCc3cc(OC)cc(-n4cc(Cl)c5c(N)ncnc54)c3)cc2n1

IC50 [1] [nM]	IC50 [2] [nM]	SMILES
≥ 1000		Cn1ccc(-c2cn(-c3cncc(COc4ccc5ccc(N6CCOCC6=O)nc5c4)c3)c3ncnc(N)c23)n1
≥ 1000		CCc1cc(NCCOC)c2c(F)cc(OCc3cncc(-n4cc(C5CCCO5)c5c(N)ncnc54)n3)cc2n1 (centres undefined)
	≥ 1000	CNc1ccc2ccc(OCc3cccc(-c4c[nH]c5c(N)ncnc45)c3)cc2n1
< 10		CCc1cc(N2CCNCC2)c2ccc(OCc3cncc(-n4cc([C@@H]5CCCO5)c5c(N)ncnc54)c3)cc2n1
≥ 1000		CN(C)C(=O)c1ccc(OCc2cncc(-n3cc(-c4ccn(C)n4)c4c(N)ncnc43)c2)cc1N
	≥ 1000	CNc1ccc2ccc(CNc3cccc(-n4cc(Br)c5c(N)ncnc54)c3)cc2n1
≤ 1000		Cn1ccc(-c2cn(-c3cncc(COc4ccc5ccc(N6CC(CO)(CO)C6)nc5c4)c3)c3ncnc(N)c23)n1
	≥ 1000	CC(C)Nc1ccc2ccc(OCc3cncc(-n4cc(Cl)c5c(N)ncnc54)c3)cc2n1
< 10		CCc1cc(NCCN(C)C)c2ccc(CCc3cncc(-n4cc([C@H]5CCCO5)c5c(N)ncnc54)c3)cc2n1
≤ 100		CCc1cc(NCCN(C)C)c2ccc(CCc3cncc(-n4cc([C@@H]5CCCO5)c5c(N)ncnc54)c3)cc2n1
< 10		CCc1cc(NCCN(C)C)c2ccc(OCc3cncc(-n4ccc5c(N)ncnc54)n3)cc2n1
≥ 1000		COCCN(C)C(=O)c1ccc(OCc2cncc(-n3cc(-c4ccn(C)n4)c4c(N)ncnc43)c2)cc1N
≥ 1000		CN(Cc1cncc(-n2cc(-c3ccn(C)n3)c3c(N)ncnc32)c1)CC1CC1
≥ 1000		Nc1ncnc2c1c(Cl)cn2-c1csc(COc2ccc3ccc(N4CCCC4)nc3c2)n1
≥ 1000		Cn1ccc(-c2cn(-c3cncc(CS(=O)(=O)c4ccc5ccc(N6CCC6)nc5c4)c3)c3ncnc(N)c23)n1
≥ 1000		Nc1cc(OCc2cncc(-n3cc(Br)c4c(N)ncnc43)c2)ccc1C(=O)N1CCNCC1
≥ 1000		Cn1ccc(-c2cn(-c3cncc(COc4cc(F)ccc4C(=O)NC4CCOCC4)c3)c3ncnc(N)c23)n1
≥ 1000		Nc1ncnc2c1c(C1CCCO1)cn2-c1cncc(COc2cnc3ccc(N4CCC4)nc3c2)c1 (centres undefined)
≥ 1000		CN(CC1CC1)C(=O)c1ccc(OCc2cncc(-n3cc(-c4ccn(C)n4)c4c(N)ncnc43)c2)cc1N
≥ 1000		CCc1cc(N2CCC2)nc2cc(F)cc(OCc3cncc(-n4cc(C5CCCO5)c5c(N)ncnc54)c3)c12 (centres undefined)
≥ 1000		Cn1ccc(-c2cn(-c3cncc(COc4ccc(C(=O)N5CCOCC5)c(N)c4)c3)c3ncnc(N)c23)n1
≥ 1000		Cn1ccc(-c2cn(-c3cncc(CNC(=O)Nc4cccc(N5CCC5)n4)c3)c3ncnc(N)c23)n1

IC50 [1] [nM]	IC50 [2] [nM]	SMILES
< 10		Nc1ncnc2c1c(CO)cn2-c1cncc(COc2ccc3ccc(N4CCC4)nc3c2)c1
< 10		Nc1ncnc2c1c(C1CCCC1)cn2-c1cncc(COc2ccc3ccc(N4CCC4)nc3c2)c1
< 10		Nc1ncnc2c(-c3cncc(COc4ccc5ccc(N6CCC6)nc5c4)c3)c[nH]c12
≥ 1000		Cn1ccc(-c2cn(-c3cncc(COc4ccc5ccc(N6CCC6=O)nc5c4)c3)c3ncnc(N)c23)n1
≥ 1000		CN(CCO)C(=O)c1ccc(OCc2cncc(-n3cc(-c4ccn(C)n4)c4c(N)ncnc43)c2)cc1N
< 10		Cn1ccc(-c2cn(-c3cncc(COc4ccc5ccc(N6CC(F)(F)C6)nc5c4)c3)c3ncnc(N)c23)n1
≥ 1000		COc1ccccc1-c1cn(-c2cncc(COc3ccc4ccc(N5CCC5)nc4c3)c2)c2ncnc(N)c12
< 10		CCc1nc(N)c2ccn(-c3cncc(COc4ccc5ccc(NC)nc5c4)c3)c2n1
≥ 1000		CN(C)CCNC(=O)c1ccc(OCc2cncc(-n3ccc4c(N)ncnc43)c2)cc1N
≥ 1000		Cn1ccc(-c2cn(-c3cncc(C[S+]([O-])c4ccc5ccc(N6CCC6)nc5c4)c3)c3ncnc(N)c23)n1 (centres undefined)
≥ 1000		CCc1cc(N2CCC2)nc2cc(OCc3cncc(-n4cc(C5CCCO5)c5c(N)ncnc54)c3)cc(F)c12 (centres undefined)
≥ 1000		Cn1ccc(-c2cn(-c3cncc(COc4ccc5cnc(N6CCC6)nc5c4)c3)c3ncnc(N)c23)n1
≥ 1000		Cn1ccc(-c2cn(-c3cncc(COC(=O)Nc4cccc(N5CCC5)n4)c3)c3ncnc(N)c23)n1
≥ 1000		Cn1ccc(-c2cn(-c3cncc(COC(=O)Nc4cccc(Br)n4)c3)c3ncnc(N)c23)n1
< 10		CC(C)c1cc(N)c2ccc(OCc3cncc(-c4c[nH]c5c(N)ncnc45)c3)cc2n1
< 10		CCNc1ccc2ccc(CCc3cncc(-n4cc([C@@H]5CCCO5)c5c(N)ncnc54)n3)cc2n1
≥ 1000		Nc1ncnc2c1ccn2-c1cncc(COc2ccc3c(=O)cc[nH]c3c2)c1
≥ 1000		Cn1ccc(-c2cn(-c3cncc(CNC(=O)Cc4cccc(N5CCC5)n4)c3)c3ncnc(N)c23)n1
< 10		Cn1ccc(-c2cn(-c3cncc(COc4ccc5ccc(N6CC(=O)C6)nc5c4)c3)c3ncnc(N)c23)n1
< 10		Cn1ccc(-c2cn(-c3cncc(CSc4ccc5ccc(N6CCC6)nc5c4)c3)c3ncnc(N)c23)n1
